Reference: the RNAGym collection of RNA variant scans (doi:10.7554/elife.90254)
Read counts are not given, so values of variants with three or more changes are uncertain.

B1: LINE1-mini (parent)
chain: GGCAGAGCUCAACACAGCGUGGCAAAGUGGCUGUGGCUAGACUGCC

Variants of: B1
Assay: self-cleavage, relative activity (ratio to wild type); higher = more cleavage; in vitro, sequencing; the parent is a self-cleaving ribozyme

Row | Variant | self-cleavage
1 | G1A A6U A11G U28G | 0.05
2 | A11C G19A A24C G35C C37G G44C | 0
3 | G22U G29A U43G | 0
4 | A25U C31U C45G | 0.07
5 | A11U A24U U32G | 0
6 | G7A C23U G30U | 0.1
7 | A11U G21U G22U A25C A26U G36U | 0
8 | G2U A16C C18A | 0.04
9 | U32A C42G C46A | 0.02
10 | C10A G29U C37U | 0
11 | A16C G19A G44C | 0.06
12 | A4C C8A C18G | 0.2
13 | A11G A16G C18A G30A G33U | 0.02
14 | C10G C15G U43C | 0.02
15 | U32G U34C A41C G44A | 0.1
16 | C18U G19A A25G G27A C42G | 0.02
17 | G7A U9G G21C G22A A24U U34C G36U | 0.03
18 | C13U G29U C45U | 0.17
19 | G1U C10G G21U A25C | 0.03
20 | G2C G21U C23U G40C | 0.12
21 | A4G G17A G19U G30C U32C A39C | 0.01
22 | C3G A6U C46U | 0.62
23 | C3A U28G G44U | 2.8
24 | G7U C10U U34A G40U | 0.06

Row | Variant | self-cleavage
25 | A6U C8A G27A | 0.26
26 | G5U C45G C46U | 0.05
27 | G5U C8A G21A G30U | 0.66
28 | C15A G17A C23G G44A | 0.03
29 | C13A C18A G30A C37U | 0.09
30 | G19A G21C G29C C37A G40C C42U C45U | 0.03
31 | C23A U28G U34C | 0.16
32 | A4U C8G C13A G40C | 0.2
33 | A4U G7C A26G C46A | 0.18
34 | G1C C13G G19C | 0.01
35 | C10A G17U G19A C37A C45U | 0.01
36 | G2U A11U C15G A24C G27U | 0.01
37 | G1C C8G C45G | 0.01
38 | C15A G27U C46A | 0.1
39 | C3A G29C G30C | 0.05
40 | G1C G7A G40U | 0.06
41 | G27C U28A G29A G30A G36U G44C | 0.04
42 | G2U C23U U43C C46A | 0.02
43 | C15A A24U U34G | 0.01
44 | G21U C31A G33C U43G G44U | 0.01
45 | A24G G35C G44U | 0.04
46 | G19C G35U G44C | 0.14
47 | C3U A4C A6G G36U | 0.17
48 | G2C A12C G21U U28C G35U C46A | 0.01

Row | Variant | self-cleavage
49 | U9A G22U G30U | 0.25
50 | C13A G35U U38G G40U | 0.04
51 | G7A G22C G29A | 0.1
52 | A11U C13U C31A | 0.03
53 | G17U G27A G36C | 0.08
54 | C13A C23G A26U U43C | 0.08
55 | A16G G17A C18U G36A | 0.01
56 | G36A U38A G40U | 0.16
57 | C8G A16G G19U | 0.04
58 | C15U U34G A39U C46U | 0.01
59 | A14G A39G C42U | 0.21
60 | A24U C31G A39C | 0.05
61 | G17C C23G A26U | 0.17
62 | G17A U28A U34A | 0.17
63 | C3G U9A A11C C13U G30U C31U | 0.02
64 | A6U C8G C46A | 0.07
65 | A4U A11G C23U G29U | 0.01
66 | C3A C15U G35U | 0.23
67 | G17C U20C C37A | 0.01
68 | C3A G33C C37A | 0.03
69 | U20C G22C A39U | 0.33
70 | A26C G33C G36A | 0.04
71 | U9A C10A C18A C23U G27U | 0.02
72 | A11C A26G C45G | 0

Row | Variant | self-cleavage
73 | C3U U20G G30U | 0.34
74 | G1C C8U C13A G17A G19U U20C A41G | 0.01
75 | U20A G29U A39G A41U | 0.01
76 | C3U A4C G30U | 0.13
77 | C8U G17C U28A G36U | 0.11
78 | G21C A25G C31U C37U A41G | 0.02
79 | C15A G17A G21A G27A | 0.07
80 | A14U G21A A24U G40U | 0.06
81 | G5U C10U C46A | 0.03
82 | C8A A24G C42U | 0.23
83 | A11C A12U G22A C46U | 0.01
84 | C3A G33C G44C | 0.02
85 | A6U G19A A25C | 0.32
86 | C23G G35C A39U | 0.08
87 | G22U A39U C46A | 0.5
88 | G7A C10G C46U | 0
89 | C3A C15A C18G G22U G29U | 0.21
90 | A11U G33U G35A G36C C45G | 0.01
91 | A6U C13G C46U | 0.13
92 | A11G C15G C18G G29U | 0.02
93 | C3U A6G C15U C31G | 0.09
94 | C3U C10A G27U | 0.04
95 | C13U A14U G17A G35A | 0.02
96 | A6C G19U U20G G29U C37G C46A | 0

Row | Variant | self-cleavage
97 | G22C U28A U34G | 0.05
98 | C3U G7U G19A U20A A41G | 0.05
99 | A4C G19U A25G G27C G30C | 0.65
100 | U28G G33A G36C | 0.01
101 | G2U C23A A26G | 0.11
102 | C3A A26U U28G | 0.84
103 | C3G A11G C37A C45A | 0.02
104 | A26U G33A G35U C45A | 0.06
105 | C18A U20G G30A U32A | 0.05
106 | G21U U28A U38A | 0.31
107 | G5A U9G G17C G21U G22U | 0.17
108 | A4C U9C G29C | 0.04
109 | G7U G29U C46U | 0.05
110 | C13U C37U G40A | 0.03
111 | G5U C10A A12C G27C | 0.01
112 | G30C G36A G40U C42U | 0.07
113 | G5C G27A C37G | 0.14
114 | G1A C10U A12U C31A C46U | 0.11
115 | G2A C8G G30C | 0.06
116 | U9C C10G G36A | 0.01
117 | C8G A25U G40U | 0.08
118 | C10A G33C C42G | 0.27
119 | G7U C10A U43C | 0.04
120 | C13G C37U C46G | 0.05

Row | Variant | self-cleavage
121 | G2A C31U A39G | 0.11
122 | A16C U34C C37U | 0.75
123 | G19A A26C U28C G30A | 0.31
124 | A16U C18A G19C | 0.07
125 | G19U G22A G35C U38A | 0.08
126 | C10A U32G G33U G35C | 0.01
127 | U9G A16U C23G G27U A41C | 0.05
128 | G5U U9A A16G A24C U28C G33C | 0
129 | C3U A16G U32C G35A | 0.06
130 | C13G A16G C18U C31U | 0.03
131 | G21A U34A G44U | 0.03
132 | C18A G35C G44U | 0.03
133 | G5U C8G U34A C46A | 0.16
134 | G7A C13A G21U | 0.2
135 | A11U G30U G33U G35U C45U | 0.01
136 | A12C C18G A24G | 0.02
137 | G1A C15G A41C | 0.05
138 | C8G G33A A41C | 0.08
139 | G5C C15A A16G U28G U32C | 0.01
140 | U9A C13A G17C G36C | 0.03
141 | G5U G33U G40U | 0.03
142 | C3G G27C G30C | 1.31
143 | A4G C8U A12C C45A | 0.02
144 | G7C U28C G33U A39C | 0.05

Row | Variant | self-cleavage
145 | G2A C3U G17U A25C G33C G44U | 0.23
146 | A6C C15G A25G | 0.01
147 | A4U G5A A11U A25C A41U C45U | 0.01
148 | G2U U9A C18U U28C | 0.01
149 | U9G U20C C23G G40A C45U | 0.01
150 | G1C G21C C45A | 0.05
151 | C8G C10U G17U U43A | 0.08
152 | A4U C8A U43A | 0.91
153 | G2C U9A C18A C37A | 0.05
154 | G19C G21C A24C | 0.19
155 | U20C G27A G35A | 0.13
156 | C8G C15A G17A C18U A26G G44U | 0.01
157 | G2C C18A U20G G40A | 0
158 | U20G A41G C46U | 0.16
159 | G1U A39C G40A | 0.02
160 | G29C U43G C46U | 0.04
161 | A14C A16U G33C G35U C46A | 0.02
162 | G19U U43C C45G | 0.39
163 | A12U G19C A26U G30U C31U U34G | 0.01
164 | A4U A11C G21C C23G | 0.02
165 | A4U A12U C31G U34A C45U | 0.01
166 | C3U G5C A24C G27U C31A C45A | 0.08
167 | G22U G36C U38C A41U C45U | 0.01
